Here are results for ten molecules from paper PMC7949046, “Human genetic variants disrupt RGS14 nuclear shuttling and regulation of LTP in hippocampal neurons” (The Journal of Biological Chemistry, 2020).

Chains of the proteins cited; added tags and fusions are not shown.
UniProt O14980: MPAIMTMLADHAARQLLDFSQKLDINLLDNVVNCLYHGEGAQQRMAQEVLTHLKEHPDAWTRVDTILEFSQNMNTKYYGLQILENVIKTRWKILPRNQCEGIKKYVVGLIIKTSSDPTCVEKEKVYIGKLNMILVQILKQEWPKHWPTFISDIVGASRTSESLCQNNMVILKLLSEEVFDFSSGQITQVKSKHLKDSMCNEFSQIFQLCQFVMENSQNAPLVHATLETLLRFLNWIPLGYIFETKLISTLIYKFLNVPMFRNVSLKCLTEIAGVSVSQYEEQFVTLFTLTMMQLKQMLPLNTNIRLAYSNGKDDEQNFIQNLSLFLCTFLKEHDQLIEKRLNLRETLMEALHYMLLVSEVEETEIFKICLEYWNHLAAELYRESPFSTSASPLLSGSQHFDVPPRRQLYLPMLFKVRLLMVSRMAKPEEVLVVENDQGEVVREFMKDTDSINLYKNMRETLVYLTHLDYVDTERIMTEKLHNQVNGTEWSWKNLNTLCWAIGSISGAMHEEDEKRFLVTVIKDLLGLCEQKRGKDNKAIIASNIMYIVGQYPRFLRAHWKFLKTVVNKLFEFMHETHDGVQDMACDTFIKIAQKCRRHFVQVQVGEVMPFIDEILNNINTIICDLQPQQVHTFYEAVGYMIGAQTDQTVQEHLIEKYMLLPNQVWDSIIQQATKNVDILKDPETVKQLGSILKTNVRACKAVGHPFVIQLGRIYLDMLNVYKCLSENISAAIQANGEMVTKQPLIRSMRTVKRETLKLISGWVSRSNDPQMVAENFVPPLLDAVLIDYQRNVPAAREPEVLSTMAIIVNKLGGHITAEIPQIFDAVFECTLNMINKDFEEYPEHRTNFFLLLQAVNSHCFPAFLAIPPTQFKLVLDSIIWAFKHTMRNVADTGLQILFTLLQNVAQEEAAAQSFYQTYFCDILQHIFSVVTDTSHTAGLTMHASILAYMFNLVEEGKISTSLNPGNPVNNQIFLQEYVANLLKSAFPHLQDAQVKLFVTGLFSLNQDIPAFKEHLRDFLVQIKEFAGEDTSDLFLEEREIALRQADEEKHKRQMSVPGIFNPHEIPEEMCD
UniProt P10824: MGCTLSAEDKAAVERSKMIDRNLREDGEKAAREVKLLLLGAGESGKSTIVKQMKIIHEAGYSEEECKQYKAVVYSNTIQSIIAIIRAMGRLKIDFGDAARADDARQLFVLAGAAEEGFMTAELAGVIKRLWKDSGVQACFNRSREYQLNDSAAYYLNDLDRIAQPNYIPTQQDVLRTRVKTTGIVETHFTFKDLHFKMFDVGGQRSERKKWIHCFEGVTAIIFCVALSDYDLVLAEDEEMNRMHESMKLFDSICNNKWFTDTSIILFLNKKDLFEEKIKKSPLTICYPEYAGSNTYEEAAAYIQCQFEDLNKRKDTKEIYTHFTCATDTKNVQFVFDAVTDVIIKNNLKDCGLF

The labels stand for the following.
B1: RGS14 WT coexpressed with Flag-XPO1 in HEK293 cells (protein, UniProt O08773 1-544)
chain: MPGKPKHLGVPNGRMVLAVSDGELTSTSGSQAQGEGRGSSLSIHSLPSGPSSPFSTDEQPVASWAQSFERLLQDPRGLAYFTEFLKKEFSAENVTFWQACERFQQIPASDTKQLAQEAHNIYHEFLSSQALSPVNIDRQAWLSEEVLAQPRPDMFRAQQLQIFNLMKFDSYARFVKSPLYQECLLAEAEGRPLREPGSSHLGSPDTARKKPKLKPGKSLPLGVEELGQLPLAEGRPLRKSFRREMPGGAVNSALRRESQGSLNSSASLDLGFLAFVSSKSESHRKSLGSGEGESESRPGKYCCVYLPDGTASLALARPGLTIRDMLAGICEKRGLSLPDIKVYLVGKEQKALVLDQDCTVLADQEVRLENRITFQLELVGLERVVRISAKPTKRLQEALQPILAKHGLSLDQVVLHRPGEKQLVDLENLVSSVASQTLVLDTLPDAKTREASSIPPCRSQGCLPRTQTKDSHLPPLSSSLSVEDASGSTGKRQTCDIEGLVELLNRVQSSGAHDQRGLLRKEDLVLPEFLQLPSQRPGSQEAPP
B2: RGS14 NESm (L503A/L504A) coexpressed with Flag-XPO1 in HEK293 cells (protein, UniProt O08773 1-544)
chain: MPGKPKHLGVPNGRMVLAVSDGELTSTSGSQAQGEGRGSSLSIHSLPSGPSSPFSTDEQPVASWAQSFERLLQDPRGLAYFTEFLKKEFSAENVTFWQACERFQQIPASDTKQLAQEAHNIYHEFLSSQALSPVNIDRQAWLSEEVLAQPRPDMFRAQQLQIFNLMKFDSYARFVKSPLYQECLLAEAEGRPLREPGSSHLGSPDTARKKPKLKPGKSLPLGVEELGQLPLAEGRPLRKSFRREMPGGAVNSALRRESQGSLNSSASLDLGFLAFVSSKSESHRKSLGSGEGESESRPGKYCCVYLPDGTASLALARPGLTIRDMLAGICEKRGLSLPDIKVYLVGKEQKALVLDQDCTVLADQEVRLENRITFQLELVGLERVVRISAKPTKRLQEALQPILAKHGLSLDQVVLHRPGEKQLVDLENLVSSVASQTLVLDTLPDAKTREASSIPPCRSQGCLPRTQTKDSHLPPLSSSLSVEDASGSTGKRQTCDIEGLVEAANRVQSSGAHDQRGLLRKEDLVLPEFLQLPSQRPGSQEAPP
B3: recombinant RGS14 NES (L503A/L504A), purified from E. coli (protein, UniProt O08773 1-544)
chain: MPGKPKHLGVPNGRMVLAVSDGELTSTSGSQAQGEGRGSSLSIHSLPSGPSSPFSTDEQPVASWAQSFERLLQDPRGLAYFTEFLKKEFSAENVTFWQACERFQQIPASDTKQLAQEAHNIYHEFLSSQALSPVNIDRQAWLSEEVLAQPRPDMFRAQQLQIFNLMKFDSYARFVKSPLYQECLLAEAEGRPLREPGSSHLGSPDTARKKPKLKPGKSLPLGVEELGQLPLAEGRPLRKSFRREMPGGAVNSALRRESQGSLNSSASLDLGFLAFVSSKSESHRKSLGSGEGESESRPGKYCCVYLPDGTASLALARPGLTIRDMLAGICEKRGLSLPDIKVYLVGKEQKALVLDQDCTVLADQEVRLENRITFQLELVGLERVVRISAKPTKRLQEALQPILAKHGLSLDQVVLHRPGEKQLVDLENLVSSVASQTLVLDTLPDAKTREASSIPPCRSQGCLPRTQTKDSHLPPLSSSLSVEDASGSTGKRQTCDIEGLVEAANRVQSSGAHDQRGLLRKEDLVLPEFLQLPSQRPGSQEAPP
B4: recombinant RGS14 RQ (R506Q), purified from E. coli (protein, UniProt O08773 1-544)
chain: MPGKPKHLGVPNGRMVLAVSDGELTSTSGSQAQGEGRGSSLSIHSLPSGPSSPFSTDEQPVASWAQSFERLLQDPRGLAYFTEFLKKEFSAENVTFWQACERFQQIPASDTKQLAQEAHNIYHEFLSSQALSPVNIDRQAWLSEEVLAQPRPDMFRAQQLQIFNLMKFDSYARFVKSPLYQECLLAEAEGRPLREPGSSHLGSPDTARKKPKLKPGKSLPLGVEELGQLPLAEGRPLRKSFRREMPGGAVNSALRRESQGSLNSSASLDLGFLAFVSSKSESHRKSLGSGEGESESRPGKYCCVYLPDGTASLALARPGLTIRDMLAGICEKRGLSLPDIKVYLVGKEQKALVLDQDCTVLADQEVRLENRITFQLELVGLERVVRISAKPTKRLQEALQPILAKHGLSLDQVVLHRPGEKQLVDLENLVSSVASQTLVLDTLPDAKTREASSIPPCRSQGCLPRTQTKDSHLPPLSSSLSVEDASGSTGKRQTCDIEGLVELLNQVQSSGAHDQRGLLRKEDLVLPEFLQLPSQRPGSQEAPP
B5: recombinant RGS14 LR (L504R), purified from E. coli (protein, UniProt O08773 1-544)
chain: MPGKPKHLGVPNGRMVLAVSDGELTSTSGSQAQGEGRGSSLSIHSLPSGPSSPFSTDEQPVASWAQSFERLLQDPRGLAYFTEFLKKEFSAENVTFWQACERFQQIPASDTKQLAQEAHNIYHEFLSSQALSPVNIDRQAWLSEEVLAQPRPDMFRAQQLQIFNLMKFDSYARFVKSPLYQECLLAEAEGRPLREPGSSHLGSPDTARKKPKLKPGKSLPLGVEELGQLPLAEGRPLRKSFRREMPGGAVNSALRRESQGSLNSSASLDLGFLAFVSSKSESHRKSLGSGEGESESRPGKYCCVYLPDGTASLALARPGLTIRDMLAGICEKRGLSLPDIKVYLVGKEQKALVLDQDCTVLADQEVRLENRITFQLELVGLERVVRISAKPTKRLQEALQPILAKHGLSLDQVVLHRPGEKQLVDLENLVSSVASQTLVLDTLPDAKTREASSIPPCRSQGCLPRTQTKDSHLPPLSSSLSVEDASGSTGKRQTCDIEGLVELRNRVQSSGAHDQRGLLRKEDLVLPEFLQLPSQRPGSQEAPP
B6: RGS14-Luc, wild type (rat RGS14 fused to Renilla luciferase) (protein, UniProt O08773 1-544)
chain: MPGKPKHLGVPNGRMVLAVSDGELTSTSGSQAQGEGRGSSLSIHSLPSGPSSPFSTDEQPVASWAQSFERLLQDPRGLAYFTEFLKKEFSAENVTFWQACERFQQIPASDTKQLAQEAHNIYHEFLSSQALSPVNIDRQAWLSEEVLAQPRPDMFRAQQLQIFNLMKFDSYARFVKSPLYQECLLAEAEGRPLREPGSSHLGSPDTARKKPKLKPGKSLPLGVEELGQLPLAEGRPLRKSFRREMPGGAVNSALRRESQGSLNSSASLDLGFLAFVSSKSESHRKSLGSGEGESESRPGKYCCVYLPDGTASLALARPGLTIRDMLAGICEKRGLSLPDIKVYLVGKEQKALVLDQDCTVLADQEVRLENRITFQLELVGLERVVRISAKPTKRLQEALQPILAKHGLSLDQVVLHRPGEKQLVDLENLVSSVASQTLVLDTLPDAKTREASSIPPCRSQGCLPRTQTKDSHLPPLSSSLSVEDASGSTGKRQTCDIEGLVELLNRVQSSGAHDQRGLLRKEDLVLPEFLQLPSQRPGSQEAPP
B7: RGS14-Luc RQ/NLS (R506Q with R208A/K209A/K210A) (protein, UniProt O08773 1-544)
chain: MPGKPKHLGVPNGRMVLAVSDGELTSTSGSQAQGEGRGSSLSIHSLPSGPSSPFSTDEQPVASWAQSFERLLQDPRGLAYFTEFLKKEFSAENVTFWQACERFQQIPASDTKQLAQEAHNIYHEFLSSQALSPVNIDRQAWLSEEVLAQPRPDMFRAQQLQIFNLMKFDSYARFVKSPLYQECLLAEAEGRPLREPGSSHLGSPDTAAAAPKLKPGKSLPLGVEELGQLPLAEGRPLRKSFRREMPGGAVNSALRRESQGSLNSSASLDLGFLAFVSSKSESHRKSLGSGEGESESRPGKYCCVYLPDGTASLALARPGLTIRDMLAGICEKRGLSLPDIKVYLVGKEQKALVLDQDCTVLADQEVRLENRITFQLELVGLERVVRISAKPTKRLQEALQPILAKHGLSLDQVVLHRPGEKQLVDLENLVSSVASQTLVLDTLPDAKTREASSIPPCRSQGCLPRTQTKDSHLPPLSSSLSVEDASGSTGKRQTCDIEGLVELLNQVQSSGAHDQRGLLRKEDLVLPEFLQLPSQRPGSQEAPP
B8: RGS14-Luc R506Q (human variant R507Q placed in rat RGS14) (protein, UniProt O08773 1-544)
chain: MPGKPKHLGVPNGRMVLAVSDGELTSTSGSQAQGEGRGSSLSIHSLPSGPSSPFSTDEQPVASWAQSFERLLQDPRGLAYFTEFLKKEFSAENVTFWQACERFQQIPASDTKQLAQEAHNIYHEFLSSQALSPVNIDRQAWLSEEVLAQPRPDMFRAQQLQIFNLMKFDSYARFVKSPLYQECLLAEAEGRPLREPGSSHLGSPDTARKKPKLKPGKSLPLGVEELGQLPLAEGRPLRKSFRREMPGGAVNSALRRESQGSLNSSASLDLGFLAFVSSKSESHRKSLGSGEGESESRPGKYCCVYLPDGTASLALARPGLTIRDMLAGICEKRGLSLPDIKVYLVGKEQKALVLDQDCTVLADQEVRLENRITFQLELVGLERVVRISAKPTKRLQEALQPILAKHGLSLDQVVLHRPGEKQLVDLENLVSSVASQTLVLDTLPDAKTREASSIPPCRSQGCLPRTQTKDSHLPPLSSSLSVEDASGSTGKRQTCDIEGLVELLNQVQSSGAHDQRGLLRKEDLVLPEFLQLPSQRPGSQEAPP
B9: RGS14-Luc Q515A/R516A (GPRm) (protein, UniProt O08773 1-544)
chain: MPGKPKHLGVPNGRMVLAVSDGELTSTSGSQAQGEGRGSSLSIHSLPSGPSSPFSTDEQPVASWAQSFERLLQDPRGLAYFTEFLKKEFSAENVTFWQACERFQQIPASDTKQLAQEAHNIYHEFLSSQALSPVNIDRQAWLSEEVLAQPRPDMFRAQQLQIFNLMKFDSYARFVKSPLYQECLLAEAEGRPLREPGSSHLGSPDTARKKPKLKPGKSLPLGVEELGQLPLAEGRPLRKSFRREMPGGAVNSALRRESQGSLNSSASLDLGFLAFVSSKSESHRKSLGSGEGESESRPGKYCCVYLPDGTASLALARPGLTIRDMLAGICEKRGLSLPDIKVYLVGKEQKALVLDQDCTVLADQEVRLENRITFQLELVGLERVVRISAKPTKRLQEALQPILAKHGLSLDQVVLHRPGEKQLVDLENLVSSVASQTLVLDTLPDAKTREASSIPPCRSQGCLPRTQTKDSHLPPLSSSLSVEDASGSTGKRQTCDIEGLVELLNRVQSSGAHDAAGLLRKEDLVLPEFLQLPSQRPGSQEAPP
B10: RGS14-Luc LR/NLS (L504R with R208A/K209A/K210A) (protein, UniProt O08773 1-544)
chain: MPGKPKHLGVPNGRMVLAVSDGELTSTSGSQAQGEGRGSSLSIHSLPSGPSSPFSTDEQPVASWAQSFERLLQDPRGLAYFTEFLKKEFSAENVTFWQACERFQQIPASDTKQLAQEAHNIYHEFLSSQALSPVNIDRQAWLSEEVLAQPRPDMFRAQQLQIFNLMKFDSYARFVKSPLYQECLLAEAEGRPLREPGSSHLGSPDTAAAAPKLKPGKSLPLGVEELGQLPLAEGRPLRKSFRREMPGGAVNSALRRESQGSLNSSASLDLGFLAFVSSKSESHRKSLGSGEGESESRPGKYCCVYLPDGTASLALARPGLTIRDMLAGICEKRGLSLPDIKVYLVGKEQKALVLDQDCTVLADQEVRLENRITFQLELVGLERVVRISAKPTKRLQEALQPILAKHGLSLDQVVLHRPGEKQLVDLENLVSSVASQTLVLDTLPDAKTREASSIPPCRSQGCLPRTQTKDSHLPPLSSSLSVEDASGSTGKRQTCDIEGLVELRNRVQSSGAHDQRGLLRKEDLVLPEFLQLPSQRPGSQEAPP

Results are given in words; binding and its absence hold for the method and conditions named. For some of these results: Binding seen in cells or lysates may run through a third protein. Some binding calls cover weakened binding; strength is not graded here. For some of these results: Sequences can lack the tags named with a protein.

The first assay concerns the target Flag-XPO1 (Flag-hCRM1) (human) (UniProt O14980). Nature of the assay: co-IP; Flag-XPO1 and RGS14 WT or NES transfected into HEK cells; Flag immunoprecipitated (Flag affinity gel); RGS14 and XPO1 measured by immunoblot. On the technique in general: Immunoblotting shows a protein as a band on a membrane.
As to B1, the binding result was “binds”. On the same count and under the same terms, to B2 belongs “no binding”.

The target in the next assay is T1, purified XPO1-GST (GST-CRM1, Exportin 1) (human, UniProt O14980 1-1071).
T1 construct: Results and legend name the protein of the pull-down XPO1-GST / GST-XPO1, but the methods say that CRM1/XPO1 was cleaved from the beads with TEV protease; also called GST-XPO1; CRM1/XPO1; source: E. coli BL21, purified (glutathione Sepharose 4B)
Description: pull-down; purified RGS14 mixed 2 h with purified XPO1-GST and His-Ran Q69L-GTP; His-Ran captured on Ni-NTA; Coomassie and immunoblot; both purified.
For B3, the binding entry is on record as “no binding”. For B4, the binding entry is “no binding”. Same read-out and setting: to B5 belongs “no binding”.

The target of a further assay is Gαi1-YFP (UniProt P10824). Nature of the assay: FRET or BRET; live HEK293 cells transiently transfected (40 h) with RGS14-Luc (donor) and Gαi1-YFP (acceptor); net BRET against the acceptor/donor ratio, or static net BRET; Tyrode's solution pH 7.4, 5 μM coelenterazine H. (In general: BRET reads energy transfer from a luciferase to a nearby fluorophore.)
In the case of B6, the binding result is on record as “binds”. The same measure, in the same setting: with B7 the entry was “binds”.

On to B8, for which the binding result is “binds”. On to B9, for which the binding entry is reported as “no binding”. For B10, the binding result is “binds”.
